ChEMBL document CHEMBL1133545, “Inhibition of monoamine oxidases by functionalized coumarin derivatives: biological activities, QSARs, and 3D-QSARs” (J Med Chem, 2000)

Experiments:
[1] = molecular target: T1, Amine oxidase [flavin-containing] A (Rattus norvegicus, UniProt P21396)
T1 sequence (P21396 whole entry): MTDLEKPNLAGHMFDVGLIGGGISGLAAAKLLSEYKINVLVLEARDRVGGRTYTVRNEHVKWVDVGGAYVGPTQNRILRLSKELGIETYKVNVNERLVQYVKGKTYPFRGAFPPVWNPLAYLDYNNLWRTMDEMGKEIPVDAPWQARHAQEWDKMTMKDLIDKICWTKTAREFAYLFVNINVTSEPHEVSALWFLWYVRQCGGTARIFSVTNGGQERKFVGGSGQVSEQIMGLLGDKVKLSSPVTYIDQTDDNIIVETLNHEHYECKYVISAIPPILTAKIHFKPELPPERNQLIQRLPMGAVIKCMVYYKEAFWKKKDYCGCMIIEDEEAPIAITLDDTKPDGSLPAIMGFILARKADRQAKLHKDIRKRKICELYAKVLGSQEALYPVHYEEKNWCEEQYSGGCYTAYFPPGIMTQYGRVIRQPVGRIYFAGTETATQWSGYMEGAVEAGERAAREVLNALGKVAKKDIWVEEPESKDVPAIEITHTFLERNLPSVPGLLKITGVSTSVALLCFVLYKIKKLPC

[2] = molecular target: T2, Amine oxidase [flavin-containing] B (Rattus norvegicus, UniProt P19643)
T2 sequence (P19643 whole entry): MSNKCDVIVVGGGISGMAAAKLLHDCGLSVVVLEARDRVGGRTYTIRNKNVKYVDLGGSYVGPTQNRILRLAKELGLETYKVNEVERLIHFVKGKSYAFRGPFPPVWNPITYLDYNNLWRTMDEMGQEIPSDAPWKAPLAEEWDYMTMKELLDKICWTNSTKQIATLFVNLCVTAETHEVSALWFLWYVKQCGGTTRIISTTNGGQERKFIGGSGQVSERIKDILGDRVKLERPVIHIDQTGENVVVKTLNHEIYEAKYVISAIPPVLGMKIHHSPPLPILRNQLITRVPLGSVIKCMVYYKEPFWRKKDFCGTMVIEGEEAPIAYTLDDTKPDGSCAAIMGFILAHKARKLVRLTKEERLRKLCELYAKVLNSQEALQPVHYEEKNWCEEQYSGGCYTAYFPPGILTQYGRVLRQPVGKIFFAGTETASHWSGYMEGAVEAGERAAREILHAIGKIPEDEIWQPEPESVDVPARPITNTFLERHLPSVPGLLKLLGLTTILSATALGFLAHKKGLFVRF

[3] = molecular target: T1, Amine oxidase [flavin-containing] A; remark: listed apart in the source

SMILES | IC50 [1] [µM] | IC50 [2] [µM] | inhibition at 1 µM [3] [%]
Cc1cc(=O)oc2cc(OCc3ccccc3)ccc12 | 1.95 | 0.0182 | 
Cc1c(C)c2ccc(OCc3cccc(F)c3)cc2oc1=O | 0.575 | 0.00282 | 
Cc1cccc(COc2ccc3c(C)c(C)c(=O)oc3c2)c1 | 3.31 | 0.00437 | 
COc1cccc(COc2ccc3c(C)c(C)c(=O)oc3c2)c1 | 1.51 | 0.00363 | 
Cc1c(C)c2ccc(NC(=O)c3ccccc3)cc2oc1=O | 1.38 | 0.191 | 
O=c1oc2cc(OCc3ccccc3)ccc2c2c1CCC2 | 1.58 | 0.00347 | 
Cc1c(C)c2cc(O)c(OCc3ccccc3)cc2oc1=O | 9.33 | 0.0282 | 
O=c1ccc2ccc(CNc3ccccc3)cc2o1 | 41.7 | 2.14 | 
Cc1c(C)c2ccc(OCc3cccc(C(F)(F)F)c3)cc2oc1=O | 1.91 | 0.00575 | 
O=c1oc2cc(OCc3ccccc3)ccc2c2ccccc12 |  | 0.0501 | 7
O=c1oc2cc(OCc3ccccc3)ccc2c2c1CCCC2 | 1.58 | 0.00347 | 
Cc1ccc(COc2ccc3c(C)c(C)c(=O)oc3c2)cc1 | 3.72 | 0.00617 | 
Cc1c(C)c2cc(OCc3ccccc3)c(O)cc2oc1=O | 112 | 3.09 | 
Cc1c(C)c2ccc(NCc3ccccc3)cc2oc1=O | 1.58 | 0.162 | 
Cc1c(C)c2ccc(OCc3cccc([N+](=O)[O-])c3)cc2oc1=O | 0.0759 | 0.00257 | 
O=c1ccc2ccc(COc3ccccc3)cc2o1 | 0.389 | 0.0851 | 
